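Five compound concentrations were applied to cells in 96-well plates for 48 hours; endpoints were derived by simple linear interpolation of the resulting dose-response curve. Abbreviation: GI50, concentration required for 50% inhibition of growth. TGI: total growth inhibition.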
Test system: NCI-H322M lung
Assay: inhibition of tumour cell growth, NCI panel, 48 h

| SMILES | GI50 | TGI |
| --- | --- | --- |
| Fc1ccc(F)c(CNc2nc(SCCN3CCOCC3)nc3c2cnn3CC(Cl)c2ccc(Br)cc2)c1 (stereo not drawn) | 19.5 µM | > 100 µM |
| CN1CCN(c2ccc(Nc3nc(NCCCNC(=O)C4CCCCC4)c4sccc4n3)cc2)CC1 | 16.1 µM | 35.4 µM |
| CN(C)CCCNC(=O)c1cc(NC(=O)c2cc(NC(=O)c3ccc(C#Cc4ccccc4)cc3)cn2C)cn1C | 3.92 µM | 15.2 µM |
| CC(=O)Nc1ccc(-c2cn(-c3cccc(C(=O)Nc4cc(C(F)(F)F)cc(C(F)(F)F)c4)c3)nn2)cn1 | 14.2 µM | 33.2 µM |

From PubChem BioAssay (NCI)
